Assay results as given in PubChem BioAssay (NCI).
Several values for one entry are separate records, joined by “and”; a condition that tells them apart may be missing. Equal entries are not always repeated.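 Each compound was tested at five concentrations against cells in 96-well plates for 48 hours. Here, GI50 denotes the concentration required for 50% inhibition of growth. At the TGI there is no net growth.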 Numbered stars: 1 amine (or outer) side, 2 acyl side, 3 side chain; on linkers, the order of the positions; unused ones are H or OH. Peptide text beside a SMILES is read from it. * marks the point of attachment. γGlu = O=C(O)[CH](CCC(=O)[*:2])N[*:1]; NHOH = ON*

What follows are compounds tested on NCI-H322M lung (assay: NCI tumour cell line growth inhibition, 48 h).

Compared with `C[n+]1c2ccccc2c(CNC(CS)C(=O)O)c2ccccc21` (centres undefined), `CCOC(=O)C1=C(c2ccccc2)N(C(C)=O)Cc2ccccc21` is lower in TGI: greater than 100 µM for the first, 82.6 µM for the second.

`COc1ccc(Nc2nc3ccc(C(F)(F)F)cc3nc2C(=O)O)cc1` and `FC(F)(F)c1ccc(NCc2nc3ccccc3[nH]2)cc1` cannot be ordered by TGI: greater than 100 µM for the first, greater than 100 µM for the second.

`CCOC(=O)CNC(=O)C(CCC(=O)NO)NC(=O)CCC(N)C(=O)O` (centres undefined) (γGlu-Glu(NHOH)-Gly-OEt; configuration not given here) and `CC(C)(C)OC(=O)NC(CS(=O)(=O)O)C(=O)O` (centres undefined) cannot be ordered by TGI: greater than 100 µM for the first, greater than 100 µM for the second.

`C#CC(O)/C=C/C(O)CCCC(O)CC#CC(O)C#CC(O)CCCC(O)/C=C/CCCCCC(=O)CCCCCCCCCCCCCC(O)C(O)C#CC(=O)O` (centres undefined) and `CC(=O)OCC1OC(Oc2cc(C)c(O)cc2C/C=C(\C)CC/C=C(\C)C[C@@H](C=C(C)C)OC(C)=O)C(O)C(OC(C)=O)C1OC(C)=O` (some centres undefined) cannot be ordered by TGI: greater than 50 µM for the first, greater than 50 µM for the second.

Going from `CSc1ccc(/C=C2\N=C(c3ccccc3)N(/N=C3\C(=O)Nc4ccccc43)C2=O)cc1` to `COc1ccc2c(c1)/C(=C\c1c(Cl)n(-c3ccccc3)c3ccccc13)C(=O)N2`, the TGI falls from greater than 100 µM to 53.9 µM.

First: CN1CCc2cc3c4cc2C1Cc1ccc(cc1)Oc1cc(ccc1O)CC1c2c(cc(O)c(c2O4)O3)CCN1C (centres undefined)
Second: COc1ccc2c(c1)CCc1c-2n(CCN2CCOCC2)c2ccc(OC)cc12
The TGI of the first is lower: 5.7 µM for the first, greater than 100 µM for the second.

`O=C1NC(=O)C(c2c[nH]c3ccccc23)=C1c1ccccc1` and `N#Cc1cn(-c2c3ccccc3nc3ccccc23)c(=O)[nH]c1=O` cannot be ordered by TGI: greater than 25 µM for the first, 28.8 µM for the second.

`COC(=O)/C(=N/NC(C)(C)C)C(C(=O)OC)C(=O)C(=O)Nc1nc2ccc([N+](=O)[O-])cc2s1` (centres undefined) and `COC(=O)C(/C(=N/N)C(=O)Nc1cccc(O)c1)c1nc2ccccc2[nH]c1=O` (centres undefined) cannot be ordered by TGI: greater than 100 µM for the first, greater than 100 µM for the second.

Going from `COC(=O)C1=C(\O)C[C@@]2(C)CC[C@@H](C(=O)OC)C2C/C=C\1C(=O)OC` (some centres undefined) to `COC(=O)[C@]12CC[C@@H](C)[C@H](C)[C@@H]1C1=CC[C@@H]3[C@@]4(C)CC(=O)[C@H](O)[C@@](C)(CO)[C@@H]4C(=O)C[C@@]3(C)[C@]1(C)CC2`, the TGI falls from greater than 100 µM to 26.2 µM.

First: CNCCNc1nc2ccccc2c2c(=O)c3cccc(C)c3sc12
Second: COc1c2ccccc2c(O)c2c(=O)ccn(C)c12
The TGI of the first is 5.1-fold lower: 9.42 µM for the first, 47.8 µM for the second.

Going from `COc1ccc2nc3cc(Cl)ccc3c(Nc3cc(C(C)C)c(O)cc3C)c2c1` to `COc1cc(Cn2c(SCC(=O)Nc3ccc(Cl)cc3)nc3ccccc3c2=O)cc(OC)c1OC`, the TGI rises from 5.46 µM to greater than 100 µM.

`COC(=O)C1(C)CCCC2(C)c3cc(OC)ccc3C(=O)C(Br)C12` (centres undefined) and `COc1ccc(/C=C2\CCc3cc(OC)c(OC)cc3C2=O)cc1` cannot be ordered by TGI: greater than 10 µM for the first, greater than 10 µM for the second.

`NCC1(N2CCOCC2)C2CCCC21CNc1ccccc1` (centres undefined) and `O=C1OCCC[C@H]2O[C@@H](COCc3ccccc3)C[C@@H]12` cannot be ordered by TGI: greater than 100 µM for the first, greater than 100 µM for the second.

`Cc1cn2c(/C=C3/C(=O)Nc4ccc(Cl)cc43)c(C)nc2s1` and `Cc1nc2ccc(N)cc2[nH]c1=O` cannot be ordered by TGI: greater than 37.2 µM for the first, greater than 100 µM for the second.

First: COc1ccc(/C=C2\CCC(Cc3ccccc3)(CN(C)C)C2=O)cc1 (centres undefined)
Second: CCc1ccc(/C=C/C(=O)C2CN(CC)CCC2(O)/C=C/c2ccc(CC)cc2)cc1 (centres undefined)
The TGI of the first is higher: greater than 100 µM for the first, 24.7 µM for the second.

`O=c1c2cc(O)c(O)cc2oc2cc(O)c(C3OC(CO)C(O)C(O)C3O)c(O)c12` (centres undefined) and `Cc1c(N=Nc2ccc(Cl)cc2)c(C)n(C2OC(CO)C(O)C(O)C2O)c(=S)c1C#N` (centres undefined) cannot be ordered by TGI: greater than 100 µM for the first, greater than 100 µM for the second.

`COCOc1c(C(OCOC)c2cnc(Sc3ccccc3)n2C)ccc(OC)c1OC` (centres undefined) and `O=c1c2ccccc2nc2sc(/N=C/C=C/c3ccccc3)nn12` cannot be ordered by TGI: greater than 100 µM for the first, greater than 100 µM for the second.

Compared with `O=C1/C(=C/c2ccccc2[N+](=O)[O-])COc2ccc(O)c(O)c21`, `CCc1ccc2c(c1)C(=O)c1c-2n(CCCN)c(=O)c2cc([N+](=O)[O-])ccc12` is 3.9-fold lower in TGI: 10.6 µM for the first, 2.75 µM for the second.

`N=C1/C(=C2\Nc3ccccc3S2)CC(=O)N1c1ccc(SC(F)F)cc1` and `C#Cc1ccc(-n2c(/C=C/c3ccc4ccccc4c3)nc3ncccc3c2=O)cc1` cannot be ordered by TGI: greater than 100 µM for the first, greater than 100 µM for the second.

`Nc1nc2ncn(CC(O)COC(=O)c3ccccc3)c2c(=O)[nH]1` (centres undefined) and `NC(=O)c1ncn(Cc2ccccc2)c1CNC(N)=S` cannot be ordered by TGI: greater than 100 µM for the first, greater than 100 µM for the second.

`CNc1ncnc2c1cnn2CCCCO` and `CNc1ncc2cc(-c3cc(NC(=O)NCCC(C)(C)C)c(F)cc3C)c(C)nc2n1` cannot be ordered by TGI: greater than 100 µM for the first, greater than 100 µM for the second.

Compared with `O=C(Nc1ccccc1)Nc1ccc(Cl)c(Cl)c1`, `CCOC(=O)c1cc(-c2ccccc2)[nH]c1N/N=C/c1c(Cl)cccc1Cl` is higher in TGI: 65.9 µM for the first, greater than 100 µM for the second.

`CC(C)[C@@H]1OC(=O)[C@@H](C)NC(=O)[C@@H]2CCCN2C1=O` (HELM PEPTIDE1{[CC(C)[C@H](O[*:1])C(=O)[*:2]].P.[dA]}$PEPTIDE1,PEPTIDE1,1:R1-3:R2$$$V2.0) and `COC(=O)NC(=O)c1cn(C2CCCCC2)c(=O)[nH]c1=O` cannot be ordered by TGI: greater than 100 µM for the first, greater than 100 µM for the second.

Compared with `Cc1cc(C#Cc2ccccc2)ccc1-n1c(/C=C/c2cc(O)ccc2O)nc2ccccc2c1=O`, `CCOC(=O)CC(=O)CSc1c(-c2ccccc2)c(=O)n(-c2ccccc2)c(=S)n1-c1ccccc1` is higher in TGI: 5.48 µM for the first, greater than 100 µM for the second.

Going from `COc1cc2c(cc1OC)C(=O)/C(=C/c1cc(Cl)cc(Cl)c1)C2` to `COCCOC1=C(Cl)C(=O)c2c(O)ccc(O)c2C1=O`, the TGI falls from greater than 100 µM to 24.3 µM.

Compared with `Oc1ccc(-c2nc3cc(F)ccc3s2)cc1`, `CCSc1nc(-c2cccs2)nc2ccc(I)cc12` is higher in TGI: 67.7 µM for the first, greater than 100 µM for the second.

`Nc1nnc2oc3ccc4ccccc4c3cc1-2` and `N=c1oc2ccccc2cc1C(=O)Nc1nccs1` cannot be ordered by TGI: greater than 100 µM for the first, greater than 100 µM for the second.

`Cc1cc2c(cc1Cl)N1C(=O)NS(=O)(=O)N=C1NS2(=O)=O` and `NS(=O)(=O)c1nnc(NS(=O)(=O)c2ccc(Cl)cc2)s1` cannot be ordered by TGI: greater than 100 µM for the first, greater than 100 µM for the second.

Going from `C=C(CO)[C@H]1Oc2ccc(C(C)=O)cc2[C@@H]1O` to `N=c1oc2ccc(Cl)cc2cc1C(N)=O`, the TGI falls from greater than 100 µM to 91.8 µM.

`CC(C)COC(c1ccc2c(c1)OCO2)C(C)Br` (centres undefined) and `CC(C)NC(=O)OCc1c(COC(=O)NC(C)C)c(-c2cc[n+](COC(=O)C(C)C)cc2)n2c1CCC2` cannot be ordered by TGI: greater than 100 µM for the first, greater than 100 µM for the second.

Compared with `CCCc1n(Cc2ccc3ccccc3n2)cc[n+]1Cc1ccc2ccccc2n1`, `CCn1c(O)c(C=Nc2ccccc2)s/c1=N/Nc1nc(-c2ccc(O)c(O)c2)cs1` is higher in TGI: 35.7 µM for the first, greater than 100 µM for the second.

Compared with `CC1(C)CC(N2CCN(C3CC(C)(C)NC(C)(C)C3)CC2)CC(C)(C)N1`, `Cc1ccc(S(=O)(=O)N/N=C2\CC(C)OC3=C2CCCCCC3)cc1` (centres undefined) is lower in TGI: greater than 100 µM for the first, 44.5 µM for the second.

`CC1CC(Br)C(=O)O1` (centres undefined) and `CC1C(=O)C(C)C(c2ccco2)N(N=O)C1c1ccco1` (centres undefined) cannot be ordered by TGI: greater than 100 µM for the first, greater than 100 µM for the second.

First: CNN1C(=O)c2c(C)c(C)c(C#N)c(N)c2C1=O
Second: c1ccc2c3nnc(c2c1)SCCCSc1nnc(c2ccccc12)SCCCS3
The TGI of the first is lower: 75 µM for the first, greater than 100 µM for the second.

`O=C(O)COc1ccc(C(=O)/C(SS/C(C(=O)c2ccc(OCC(=O)O)c(Cl)c2Cl)=C2\C=C(c3ccccc3Cl)SS2)=C2/C=C(c3ccccc3Cl)SS2)c(Cl)c1Cl` gave a TGI greater than 100 µM.

Compared with `O=C1NC(=O)C(c2c[nH]c3ccccc23)=C1c1ccccc1`, `CCOC(=O)c1cc(-c2ccccc2)[nH]c1N/N=C/c1c(Cl)cccc1Cl` is lower in GI50: greater than 25 µM for the first, 11.8 µM for the second.

Going from `CNCCNc1nc2ccccc2c2c(=O)c3cccc(C)c3sc12` to `COc1c2ccccc2c(O)c2c(=O)ccn(C)c12`, the GI50 rises from 2.64 µM to 10.2 µM (3.9-fold).

First: COc1ccc2nc3cc(Cl)ccc3c(Nc3cc(C(C)C)c(O)cc3C)c2c1
Second: COc1cc(Cn2c(SCC(=O)Nc3ccc(Cl)cc3)nc3ccccc3c2=O)cc(OC)c1OC
The GI50 of the first is 9.5-fold lower: 2.01 µM for the first, 19.1 µM for the second.

First: Cc1cn2c(/C=C3/C(=O)Nc4ccc(Cl)cc43)c(C)nc2s1
Second: O=C(Nc1ccccc1)Nc1ccc(Cl)c(Cl)c1
The GI50 of the first is 1.9-fold lower: 1.97 µM for the first, 3.76 µM for the second.

Going from `O=C1/C(=C/c2ccccc2[N+](=O)[O-])COc2ccc(O)c(O)c21` to `CCc1ccc2c(c1)C(=O)c1c-2n(CCCN)c(=O)c2cc([N+](=O)[O-])ccc12`, the GI50 falls from 2.43 µM to 1.43 µM (1.7-fold).

Compared with `N=C1/C(=C2\Nc3ccccc3S2)CC(=O)N1c1ccc(SC(F)F)cc1`, `FC(F)(F)c1ccc(NCc2nc3ccccc3[nH]2)cc1` is lower in GI50: greater than 100 µM for the first, 45.5 µM for the second.

Going from `Cc1cc(C#Cc2ccccc2)ccc1-n1c(/C=C/c2cc(O)ccc2O)nc2ccccc2c1=O` to `C#Cc1ccc(-n2c(/C=C/c3ccc4ccccc4c3)nc3ncccc3c2=O)cc1`, the GI50 rises from 1.62 µM to 7.3 µM (4.5-fold).

First: Cc1cc2c(cc1Cl)N1C(=O)NS(=O)(=O)N=C1NS2(=O)=O
Second: CCCc1n(Cc2ccc3ccccc3n2)cc[n+]1Cc1ccc2ccccc2n1
The GI50 of the first is higher: greater than 100 µM for the first, 4.38 µM for the second.

`COC(=O)[C@]12CC[C@@H](C)[C@H](C)[C@@H]1C1=CC[C@@H]3[C@@]4(C)CC(=O)[C@H](O)[C@@](C)(CO)[C@@H]4C(=O)C[C@@]3(C)[C@]1(C)CC2` was tested, and the GI50 was 12.3 µM.

`CCc1ccc([O-])c(C=NCCCN(C)CCCN=Cc2cc(C)ccc2[O-])c1.[Co+3].[N-]=[N+]=[N-]` was tested, and the GI50 was 50 µg/mL and 118 µg/mL.
In the case of `CNc1ncc2cc(-c3cc(NC(=O)NCCC(C)(C)C)c(F)cc3C)c(C)nc2n1`, the GI50 is reported as 0.236 µM and 0.287 µM.

With `CCc1ccc([O-])c(C=NCCCN(C)CCCN=Cc2cc(C)ccc2[O-])c1.[Co+3].[N-]=[N+]=[N-]` the TGI was 50 µg/mL and > 150 µg/mL.
